Whole data set: some 33,000 sequences, median “E-score (-0.5 to 0.5)” near -0.035, cut for the highest 2% near 0.35. Some of the results follow.
target: T1, Pdr3 (UniProt P33200); test: PBM E-score (8-mer binding enrichment) (E-score (-0.5 to 0.5)); higher = stronger / more preferred TF binding; most listed sequences are background and not binding sites; conditions: protein concentration: 200 nM; construct: GST-full length
T1 sequence: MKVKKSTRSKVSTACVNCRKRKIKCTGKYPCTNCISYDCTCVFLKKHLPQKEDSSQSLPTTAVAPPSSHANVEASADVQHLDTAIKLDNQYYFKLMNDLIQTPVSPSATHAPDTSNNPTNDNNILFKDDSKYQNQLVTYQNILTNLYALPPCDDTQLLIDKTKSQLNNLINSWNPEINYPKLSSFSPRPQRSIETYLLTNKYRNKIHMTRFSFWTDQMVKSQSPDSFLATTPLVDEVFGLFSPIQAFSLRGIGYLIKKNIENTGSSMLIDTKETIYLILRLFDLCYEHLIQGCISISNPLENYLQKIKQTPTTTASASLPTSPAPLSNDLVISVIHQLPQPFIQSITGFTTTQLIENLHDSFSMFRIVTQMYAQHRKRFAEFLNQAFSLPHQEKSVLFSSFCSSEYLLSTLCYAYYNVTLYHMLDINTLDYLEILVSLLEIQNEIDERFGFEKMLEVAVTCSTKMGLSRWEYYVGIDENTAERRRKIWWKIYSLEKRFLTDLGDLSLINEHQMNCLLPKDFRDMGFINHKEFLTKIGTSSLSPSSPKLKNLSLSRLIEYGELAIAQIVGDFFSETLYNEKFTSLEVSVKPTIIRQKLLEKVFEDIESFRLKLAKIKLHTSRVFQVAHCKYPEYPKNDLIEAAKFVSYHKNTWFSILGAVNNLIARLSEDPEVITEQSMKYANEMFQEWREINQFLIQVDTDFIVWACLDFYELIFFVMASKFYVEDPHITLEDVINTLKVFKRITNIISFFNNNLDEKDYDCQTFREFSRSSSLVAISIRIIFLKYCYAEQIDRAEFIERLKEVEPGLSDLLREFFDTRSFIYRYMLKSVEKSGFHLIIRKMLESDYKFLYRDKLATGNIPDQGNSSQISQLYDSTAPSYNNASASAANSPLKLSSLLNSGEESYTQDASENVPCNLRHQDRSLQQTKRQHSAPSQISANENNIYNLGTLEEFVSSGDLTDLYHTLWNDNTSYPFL
Outline: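 Universal all-10-mer Agilent arrays, fresh or stripped once, were converted to double-stranded form by primer extension. GST-tagged yeast transcription factors from PURExpress in vitro transcription/translation, full-length or DNA-binding domain only, were applied at about 100-200 nM and detected with fluorescent anti-GST. After masliner normalisation, the Universal PBM Analysis Suite scored each ungapped eight-base word together with its reverse complement by E-score.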

Row | Sequence | PBM E-score
1 | AAGCTCGG | 0.29
2 | ATTGTTCC | 0.378
3 | AGGCGGAG | 0.174
4 | AGTCGGCA | 0.0345
5 | GCGCAGCC | 0.0679
6 | AGAGATTG | -0.0672
7 | AGAGCTGA | -0.15
8 | GCGGCAAA | 0.184
9 | AATCCCCC | -0.0842
10 | ATGTAATC | -0.0757
11 | AATCGCTG | 0.115
12 | CGAATGTA | -0.0733
13 | CAGCAAGA | -0.0529
14 | CGCCATTA | 0.113
15 | CTGCAAAC | -0.0558
16 | AATGAAGC | -0.0906
17 | CCCTGTCC | -0.132
18 | GACTTGAC | -0.0897
19 | CCGTCTTA | -0.122
20 | ACCGCTTA | -0.221
21 | CTCCTAAA | -0.359
22 | CAATATTA | -0.0363

Row | Sequence | PBM E-score
23 | TAGGAAAA | -0.159
24 | CAGTTGCA | -0.171
25 | CATGTTAC | -0.101
26 | GTAGCAAA | 0.00758
27 | ATAGCTGA | -0.0602
28 | GATTTCCA | 0.116
29 | AAACCAGG | -0.0534
30 | ACCCTCAC | -0.0979
31 | GGAAGATA | 0.234
32 | CGCACCTC | 0.044
33 | AAGCTAGA | -0.107
34 | GTTAATGA | -0.145
35 | CGACAGCC | -0.177
36 | AAGACATC | -0.192
37 | CACGCAGG | -0.0782
38 | TAGCGTCA | -0.159
39 | CAGCCCCG | 0.242
40 | CCATAGCC | 0.0577
41 | CCGGCCGA | 0.372
42 | CACTCTTC | -0.0419
43 | ATCGGCAT | 0.175
44 | GTCGTGTA | -0.14

Row | Sequence | PBM E-score
45 | AACCCACG | 0.0355
46 | ATATAGAT | -0.0476
47 | AAAATGTG | 0.105
48 | CCGTGATA | 0.159
49 | GAGTGGAC | 0.0145
50 | GCGATGAC | 0.0396
51 | AATCCACA | -0.183
52 | CCGTCAAC | 0.1
53 | AGGTTGGG | -0.145
54 | CACCCCAG | -0.0866
55 | TCACCCCA | 0.0393
56 | AATATCCA | 0.111
57 | AGTATGAC | 0.0142
58 | CATCTTTC | -0.104
59 | ACACCCAT | -0.00624
60 | GCTAACGA | 0.0163
61 | AACTTACA | -0.168
62 | CATAAATG | -0.285
63 | ACTCATCG | -0.0411
64 | GACAGGAC | -0.105
65 | CGTGTCCC | 0.211
66 | GGCCAGGA | -0.0954

Row | Sequence | PBM E-score
67 | AAGTAAGA | -0.278
68 | AAGGCACG | 0.107
69 | AAATGTCC | -0.0402
70 | AAATTCCC | 0.144
71 | AATGGCGT | 0.00279
72 | GCGCTACA | -0.136
73 | GGGGGATA | -0.159
74 | GTGAAACA | -0.00843
75 | CCCCCAGG | -0.193
76 | ATGATTTC | 0.117
77 | ATCCTGGA | 0.0107
78 | GGTCCATA | -0.154
79 | AGCCAGAC | -0.00493
80 | GGCCTAGA | -0.0513
81 | AGGTAGTC | -0.214
82 | ACTCTGAC | -0.0748
83 | CGTAAAAC | -0.0457
84 | CGACATTA | 0.124
85 | GTAGCCTA | -0.389
86 | GTAGCGAC | -0.0961
